{
  "source": "the supplement of paper PMC8728848",
  "binders": {"B1": {"name": "ECL (Erythrina cristagalli), Q6YD91 (protein)", "chain": "VETISFSFSEFEPGNNDLTLQGAAIITQSGVLQLTKINQNGMPAWDSTGRTLYTKPVHIWDMTTGTVASFETRFSFSIEQPYTRPLPADGLVFFMGPTKSKPAQGYGYLGVFNNSKQDNSYQTLAVEFDTFSNPWDPPQVPHIGIDVNSIRSIKTQPFQLDNGQVANVVIKYDASSKILLAVLVYPSSGAIYTIAEIVDVKQVLPEWVDVGLSGATGAQRDAAETHDVYSWSFHASLPETND"}},
  "experiment_in_all_cases": "glycan array binding signal (z-score within array); higher = stronger binding",
  "details_in_all_cases": "glycan notation: IUPAC condensed, linker removed",
  "key": {"[1]": {"target": "Neu5Ac(a2-6)GlcNAc(b1-4)GlcNAc(b1-4)GlcNAc", "outline": "(§1)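 Glycan array data were curated from 3228 arrays in the Consortium for Functional Glycomics database and kept only where the protein sequence was available. Glycan names were converted to IUPAC-condensed notation, and columns mapping to the same glycan were averaged. The binding signal is a within-array Z-score, averaged across arrays of the same protein sequence at different concentrations or buffers and across linkers. Negative Z-scores can be read as non-binding.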"}, "Neu5Ac(a2-8)Neu5Ac": {"target": "Neu5Ac(a2-8)Neu5Ac", "outline": "as §1"}, "[2]": {"target": "Neu5Ac(a2-8)Neu5Ac(a2-3)Gal(b1-3)GalNAc(b1-4)[Neu5Ac(a2-3)]Gal(b1-4)Glc", "outline": "as §1"}, "[3]": {"target": "Neu5Ac(a2-8)Neu5Ac(a2-3)Gal(b1-3)GalNAc(b1-4)[Neu5Ac(a2-8)Neu5Ac(a2-3)]Gal(b1-4)Glc", "outline": "as §1"}, "[4]": {"target": "Neu5Ac(a2-8)Neu5Ac(a2-3)Gal(b1-4)Glc", "outline": "as §1"}, "[5]": {"target": "Neu5Ac(a2-8)Neu5Ac(a2-3)Gal(b1-4)GlcNAc", "outline": "as §1"}, "[6]": {"target": "Neu5Ac(a2-8)Neu5Ac(a2-3)[Gal(b1-3)GalNAc(b1-4)]Gal(b1-4)Glc", "outline": "as §1"}, "[7]": {"target": "Neu5Ac(a2-8)Neu5Ac(a2-3)[GalNAc(b1-4)]Gal(b1-4)Glc", "outline": "as §1"}, "[8]": {"target": "Neu5Ac(a2-8)Neu5Ac(a2-8)Neu5Ac", "outline": "as §1"}, "[9]": {"target": "Neu5Ac(a2-8)Neu5Ac(a2-8)Neu5Ac(a2-3)Gal(b1-4)Glc", "outline": "as §1"}, "[10]": {"target": "Neu5Ac(a2-8)Neu5Ac(a2-8)Neu5Ac(a2-3)[Gal(b1-3)GalNAc(b1-4)]Gal(b1-4)Glc", "outline": "as §1"}, "[11]": {"target": "Neu5Ac(a2-8)Neu5Ac(a2-8)Neu5Ac(a2-3)[GalNAc(b1-4)]Gal(b1-4)Glc", "outline": "as §1"}, "[12]": {"target": "Neu5Ac(a2-8)Neu5Ac(a2-8)Neu5Ac(a2-8)Neu5Ac(a2-3)[GalNAc(b1-4)]Gal(b1-4)Glc", "outline": "as §1"}, "[13]": {"target": "Neu5Ac(a2-8)Neu5Gc(a2-3)Gal(b1-4)GlcNAc", "outline": "as §1"}, "[14]": {"target": "Neu5Ac(b2-6)Gal(b1-4)GlcNAc", "outline": "as §1"}, "Neu5Ac(b2-6)GalNAc": {"target": "Neu5Ac(b2-6)GalNAc", "outline": "as §1"}, "[15]": {"target": "Neu5Ac9Ac(a2-3)Gal(b1-4)GlcNAc", "outline": "as §1"}, "[16]": {"target": "Neu5Ac9Ac(a2-6)Gal(b1-4)GlcNAc", "outline": "as §1"}, "[17]": {"target": "Neu5Gc(a2-3)Gal(b1-3)GlcNAc", "outline": "as §1"}, "[18]": {"target": "Neu5Gc(a2-3)Gal(b1-3)[Fuc(a1-4)]GlcNAc", "outline": "as §1"}, "Neu5Gc(a2-3)Gal(b1-4)Glc": {"target": "Neu5Gc(a2-3)Gal(b1-4)Glc", "outline": "as §1"}, "[19]": {"target": "Neu5Gc(a2-3)Gal(b1-4)GlcNAc", "outline": "as §1"}, "[20]": {"target": "Neu5Gc(a2-3)Gal(b1-4)GlcNAc(b1-3)Gal(b1-4)GlcNAc(b1-2)Man(a1-3)[Neu5Gc(a2-3)Gal(b1-4)GlcNAc(b1-3)Gal(b1-4)GlcNAc(b1-2)Man(a1-6)]Man(b1-4)GlcNAc(b1-4)GlcNAc", "outline": "as §1"}, "[21]": {"target": "Neu5Gc(a2-3)Gal(b1-4)[Fuc(a1-3)]GlcNAc", "outline": "as §1"}, "[22]": {"target": "Neu5Gc(a2-6)Gal(b1-4)GlcNAc", "outline": "as §1"}, "Neu5Gc(a2-6)GalNAc": {"target": "Neu5Gc(a2-6)GalNAc", "outline": "as §1"}, "[23]": {"target": "Neu5Gc(a2-8)Neu5Ac(a2-3)Gal(b1-4)GlcNAc", "outline": "as §1"}, "[24]": {"target": "Neu5Gc(a2-8)Neu5Gc(a2-3)Gal(b1-4)GlcNAc", "outline": "as §1"}, "[25]": {"target": "Neu5Gc(a2-8)Neu5Gc(a2-3)Gal(b1-4)GlcNAc(b1-3)Gal(b1-4)GlcNAc", "outline": "as §1"}, "[26]": {"target": "Neu5Gc(a2-8)Neu5Gc(a2-6)Gal(b1-4)GlcNAc", "outline": "as §1"}, "[27]": {"target": "Neu5Gc(b2-6)Gal(b1-4)GlcNAc", "outline": "as §1"}},
  "note": "The list shows a part of the results.",
  "data": [
    {"binder": "B1", "values": [
      {"measurement": "glycan array binding signal (z-score)", "setting": "[1]", "result": -0.097},
      {"measurement": "glycan array binding signal (z-score)", "setting": "Neu5Ac(a2-8)Neu5Ac", "result": -0.148},
      {"measurement": "glycan array binding signal (z-score)", "setting": "[2]", "result": -0.397},
      {"measurement": "glycan array binding signal (z-score)", "setting": "[3]", "result": 0.104},
      {"measurement": "glycan array binding signal (z-score)", "setting": "[4]", "result": -0.433},
      {"measurement": "glycan array binding signal (z-score)", "setting": "[5]", "result": -0.332},
      {"measurement": "glycan array binding signal (z-score)", "setting": "[6]", "result": -0.174},
      {"measurement": "glycan array binding signal (z-score)", "setting": "[7]", "result": -0.001},
      {"measurement": "glycan array binding signal (z-score)", "setting": "[8]", "result": -0.307},
      {"measurement": "glycan array binding signal (z-score)", "setting": "[9]", "result": -0.343},
      {"measurement": "glycan array binding signal (z-score)", "setting": "[10]", "result": -0.186},
      {"measurement": "glycan array binding signal (z-score)", "setting": "[11]", "result": -0.136},
      {"measurement": "glycan array binding signal (z-score)", "setting": "[12]", "result": -0.326},
      {"measurement": "glycan array binding signal (z-score)", "setting": "[13]", "result": -0.457},
      {"measurement": "glycan array binding signal (z-score)", "setting": "[14]", "result": -0.539},
      {"measurement": "glycan array binding signal (z-score)", "setting": "Neu5Ac(b2-6)GalNAc", "result": -0.388},
      {"measurement": "glycan array binding signal (z-score)", "setting": "[15]", "result": -0.223},
      {"measurement": "glycan array binding signal (z-score)", "setting": "[16]", "result": -0.328},
      {"measurement": "glycan array binding signal (z-score)", "setting": "[17]", "result": -0.291},
      {"measurement": "glycan array binding signal (z-score)", "setting": "[18]", "result": -0.155},
      {"measurement": "glycan array binding signal (z-score)", "setting": "Neu5Gc(a2-3)Gal(b1-4)Glc", "result": -0.117},
      {"measurement": "glycan array binding signal (z-score)", "setting": "[19]", "result": -0.328},
      {"measurement": "glycan array binding signal (z-score)", "setting": "[20]", "result": -0.151},
      {"measurement": "glycan array binding signal (z-score)", "setting": "[21]", "result": -0.217},
      {"measurement": "glycan array binding signal (z-score)", "setting": "[22]", "result": -0.324},
      {"measurement": "glycan array binding signal (z-score)", "setting": "Neu5Gc(a2-6)GalNAc", "result": -0.301},
      {"measurement": "glycan array binding signal (z-score)", "setting": "[23]", "result": -0.563},
      {"measurement": "glycan array binding signal (z-score)", "setting": "[24]", "result": -0.493},
      {"measurement": "glycan array binding signal (z-score)", "setting": "[25]", "result": -0.37},
      {"measurement": "glycan array binding signal (z-score)", "setting": "[26]", "result": -0.387},
      {"measurement": "glycan array binding signal (z-score)", "setting": "[27]", "result": -0.173}
    ]}
  ]
}
